Measured values taken from PubChem BioAssay AID1745853 (National Center for Advancing Translational Sciences (NCATS), 2022).
The list shows a part of the results. Further columns of the screen follow, without active or inactive calls.

Assays:
Assay in all cases: Primary Screen for Target Class Profiling of Small Molecule Inhibitors of Methyltransferases
[1] = target: Glycine N-methyltransferase (Homo sapiens) (UniProt Q14749); details: purified enzyme, MTase-Glo SAH luminescence; measured here: GNMT inhibition; at 40 µM; stronger effect = lower value
Procedure, shortened: (§1)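 Each enzyme was assayed with SAM and its substrate. SAH formation detected by MTase-Glo luminescence; single-point 40 uM screen[…].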

[2] = target: Guanidinoacetate N-methyltransferase (Homo sapiens) (UniProt Q14353); details: purified enzyme, MTase-Glo SAH luminescence; measured here: GAMT inhibition; at 40 µM; stronger effect = lower value
Procedure, shortened: as §1

[3] = target: Histamine N-methyltransferase (Homo sapiens) (UniProt P50135); details: purified enzyme, MTase-Glo SAH luminescence; measured here: HNMT inhibition; at 40 µM; stronger effect = lower value
Procedure, shortened: as §1

[4] = target: Nicotinamide N-methyltransferase (Homo sapiens) (UniProt P40261); details: purified enzyme, MTase-Glo SAH luminescence; measured here: NNMT inhibition; at 40 µM; stronger effect = lower value
Procedure, shortened: as §1

[5] = target: Phenylethanolamine N-methyltransferase (Homo sapiens) (UniProt P11086); details: purified enzyme, MTase-Glo SAH luminescence; measured here: PNMT inhibition; at 40 µM; stronger effect = lower value
Procedure, shortened: as §1
% is set by controls: 0 for no effect and ±100 for the full control effect.

| Structure (SMILES) | activity change, negative = inhibition [1] | activity change, negative = inhibition [2] | activity change, negative = inhibition [3] | activity change, negative = inhibition [4] | activity change, negative = inhibition [5] |
| --- | --- | --- | --- | --- | --- |
| CCN(CC)C(=O)c1cc2c(s1)CCC(C(=O)N1CCN(c3ccccn3)CC1)C2 (stereo not drawn) | -10.1% | -8.87% | -5.49% | -16.4% | 4.93% |
| CCCN1C(=O)c2c(C(=O)NCc3ccccc3OCC)ncn2CC1(C)C(=O)NCc1ccc(C)cc1 (stereo not drawn) | 0.268% | 0% | 2.38% | 1.07% | 4.91% |
| CC(CNc1nc2c(-c3ccccc3)nnn2c2ccccc12)c1ccccc1 (stereo not drawn) | 1.5% | 1.33% | -10.4% | 1.9% | -0.98% |
| COc1ccccc1OCCN1C(=O)C2(CCOCC2)CC1c1nnnn1C(C)(C)C (stereo not drawn) | -0.033% | -4.07% | 0.769% | -4.54% | 0.534% |
| COc1cccc(CN2C(=O)c3ccc(-c4ccco4)n3CC2(C)C(=O)NCCC(C)C)c1OC (stereo not drawn) | -1.06% | 0.555% | 8.65% | 4.3% | 2.29% |
| COc1cc(C(O)C(CO)Oc2ccc(CCCO[C@@H]3O[C@@H](C)[C@H](O)[C@@H](O)[C@H]3O)cc2OC)ccc1O (stereo partly drawn) | 8.44% | 5.66% | 10.6% | -6.64% | 9.3% |
| CC(C)n1nc(OC(C)(C)C(=O)Nc2ccccn2)c2cc(CN3CCOCC3)ccc21 | -4.62% | -7.48% | -4.33% | -10.4% | -0.106% |
| Cc1cnc(CCN)n1Cc1ccccc1 | -3.58% | 2.12% | -43.6% | -9.47% | 3.08% |
| CCCn1c(=O)c2ccc(Cl)cc2n2c(=O)n(CC(=O)Nc3ccc(F)cc3)nc12 | 1.37% | 2.35% | 4.68% | 1.83% | 4.39% |
| COc1ccc(C(=O)/C(Cc2cc(OC)c(OC)c(OC)c2)=C(\C(=O)O)c2ccc3c(c2)OCO3)cc1 | -2.81% | 8.57% | 9.51% | -11% | -6.67% |
| COCc1nc(-c2cccc(NC(=O)CC[C@H]3NC(=O)c4ccccc4NC3=O)c2)n[nH]1 | -6.49% | -0.197% | -0.425% | -5.13% | -3.92% |
| COC(=O)c1cc2n(n1)CC(C)(C(=O)NC1CCCCC1)N(c1ccccc1F)C2=O (stereo not drawn) | 4.28% | 0.252% | 3.68% | 5.79% | 5.25% |
| OC1(CN2CCN(CCc3ccccn3)CC2)CCCNC1 (stereo not drawn) | 0.155% | 0.961% | -1.66% | 1.23% | -2.78% |
| Cc1cnc(C(=O)N[C@@H]2CCC[C@@H]2C(=O)NCc2cc(F)ccc2F)cn1 | 0.511% | 1.38% | 2.08% | -4.82% | -3.96% |
| COc1ccc(-c2nnn3c2nc(NCc2ccccc2)c2ccccc23)cc1 | -0.31% | 4.08% | 2.65% | 3.99% | -3.45% |
| NC(=O)C1CCN(C(=O)CCc2nnc3n(Cc4ccc(Cl)cc4)c(=O)c4ccccc4n23)CC1 | -2.55% | 0.133% | -1.82% | 6.77% | -3.93% |
| Cc1ccc(C)c(N2CCN(C(=O)c3ccc4c(=O)[nH]c5c(C(=O)NC(C)C)sc(=S)n5c4c3)CC2)c1 | -40.1% | 1.31% | -16% | -65.1% | -7.2% |
| COc1cccc(CNC(=O)CCc2nnc3n(Cc4ccc(Cl)cc4)c(=O)c4ccccc4n23)c1 | -9.35% | 2.88% | -2.77% | 3.54% | -6.83% |
| CNC(=O)c1cc[nH]c1C1CCCN(Cc2ccc3c(c2)CCO3)C1 (stereo not drawn) | -0.434% | -1.68% | -16% | -5.71% | 0.904% |
| Cn1nccc1C(=O)N1C[C@@H](F)C[C@H]1C(=O)N1CCCCC1 | -4.88% | -6.1% | -2.5% | -13.2% | 10.9% |
| Cn1cccc1C(=O)N[C@H]1C[C@@H]2C(=O)N[C@H]3CCN(C(=O)Cc4cccs4)[C@@H]3C(=O)N2C1 | -3.89% | -1.77% | -0.817% | -3.15% | -3.74% |
| COc1ccc(OC)c(CNS(=O)(=O)c2ccc3c(c2)n(C)c(=O)n3C)c1 | -3.7% | 3.69% | -3.84% | -10.5% | -4.52% |
| Cn1c(=O)c2ccc(C(=O)NC3CCCC3)cc2n2c(=O)n(Cc3ccc(F)cc3Cl)nc12 | -1.15% | -10.4% | 10.4% | -4.01% | -8.48% |
| COc1ccc(-c2ccc3c(N4CCOCC4)nc(N4CC(C)OC(C)C4)nc3n2)cc1CO (stereo not drawn) | -14.4% | -8.75% | -17.2% | -19.8% | -40.8% |
| CN(Cc1cn(C)c2ccccc12)C1CCc2nn(CC3CC3)c(=O)n2CC1 (stereo not drawn) | -2.28% | -0.184% | -2.27% | -7.6% | -5.7% |
| COC(=O)c1cc2n(n1)CC(C)(C(=O)NC1CCC(C)CC1)N(c1cccc(OC)c1)C2=O (stereo not drawn) | 5.36% | 0% | 5.42% | 9.5% | 4.39% |
| COc1cccc(-c2ccc(CN3CCCC3C(=O)N3CCN(c4ncccn4)CC3)cc2)c1 (stereo not drawn) | -6.61% | 1.37% | -0.858% | -9.88% | 2.96% |
| Cc1ccc(N2C(=O)CSc3c(c4ccccc4n3C)C2C(=O)NCCC(C)C)cc1Cl (stereo not drawn) | 5.9% | 0% | 6.32% | -0.501% | 2.23% |
| Clc1cccc(N2CCN(c3nc4ccccc4c4nc(-c5cccnc5)nn34)CC2)c1 |  | -3.23% |  | -8.21% | 3.81% |
| Cn1c(CNc2ccc(C(=N)N)cc2)nc2cc(C(=O)N(CCC(=O)O)c3ccccn3)ccc21 | 3.86% | 3.67% | -60.9% | -15.2% | -4.66% |
